The text below walks through data of article PMC10726135.

This is one part of the list. At the low end of the ranking, values are background and their order means little. Measured with an extract: partners may take part in the binding.

This experiment deals with T1, HNF4alpha2 (COS-7 nuclear extract) (UniProt P41235).
T1 sequence: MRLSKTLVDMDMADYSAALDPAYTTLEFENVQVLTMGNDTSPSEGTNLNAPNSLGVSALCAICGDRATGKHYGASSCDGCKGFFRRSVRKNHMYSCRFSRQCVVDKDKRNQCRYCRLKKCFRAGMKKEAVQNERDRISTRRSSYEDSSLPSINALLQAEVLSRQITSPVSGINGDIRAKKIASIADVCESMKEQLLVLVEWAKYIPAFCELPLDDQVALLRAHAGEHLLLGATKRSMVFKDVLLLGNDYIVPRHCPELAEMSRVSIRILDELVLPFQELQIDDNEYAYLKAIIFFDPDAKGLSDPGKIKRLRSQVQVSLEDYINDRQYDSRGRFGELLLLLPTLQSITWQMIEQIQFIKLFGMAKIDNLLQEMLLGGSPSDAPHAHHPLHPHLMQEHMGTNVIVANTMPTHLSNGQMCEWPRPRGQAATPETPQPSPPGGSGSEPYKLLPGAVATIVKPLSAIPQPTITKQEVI
Description: protein-binding microarray. Conditions: COS-7 nuclear extract on double-stranded Agilent 4x180k PBM; binding buffer, salt, pH and temperature not given; high values mean tight binding; double strand, one strand shown; sequences stand for … in …GCCTAGGGAGATTAGAGTATCGGTCGA
CCAGGGACCAGGAAGGCAGTAAGAGAGAAA: the binding signal (log2 normalized intensity) is -1.09.
Take GCTAATGTCTCTCTGGCCGGAGGGGAGGTT: the binding signal (log2 normalized intensity) is 0.0972.
Take CTCCGTTTGCTATGGCCTTTCTTCATTGTT: the binding signal (log2 normalized intensity) came out at 1.76.
As to TCTCCAAAATAGGGTAGTTTGGAGATGCCG, the binding signal (log2 normalized intensity) is -0.244.
Take GGCCAAAGGTGAAGGAGAATATTAGATGAT: the binding signal (log2 normalized intensity) worked out at 0.585.
For CACTTCTGAAAAAAATATTGAACAAAGATT, the binding signal (log2 normalized intensity) is -0.491.
Consider AATTGACAAGAGTGTGGCTCAGGTTGCTGC, for which the binding signal (log2 normalized intensity) was -1.09.
With CACCCTTCATAGAATTGAAGAGAGTTAGGG, the binding signal (log2 normalized intensity) was -0.735.
Consider CTGCTGTAATAAAGCCTTATCTGACCAGGG, for which the binding signal (log2 normalized intensity) turned out to be 0.312.
Consider GAAGAACTGATTCCAAAGGAAATCACATAG, for which the binding signal (log2 normalized intensity) was -1.05.
In the case of TACACCTGGGGGCTTCCCAACTCCATTATC, the binding signal (log2 normalized intensity) is -0.261.
As for AAATGCCATAGTCCAAAGTGGCAGTCGCCT, the binding signal (log2 normalized intensity) was -0.116.
Turning to GGACACCGAGGTCCTGGGGCGATGCTTCCA, the binding signal (log2 normalized intensity) is -1.12.
As to GATAGATATGTTGAAGTGACTAAATGAGAA, the binding signal (log2 normalized intensity) is -0.48.
The same measure for AATGGAAGAATCACAGTGTGGGGCAAATCT: -0.752; for AGAGCCACCCTCAAATCAGTGAAGGCCTCT: -1.16; for CTAACTGTGTTGAATTAGTACCTCAATGCT: -1.21.
For the sequence GTGCTTGGACCTGCTCTGTTTTCTTTCGGT, the binding signal (log2 normalized intensity) came out at 1.49.
Take CACAAAGAAGACCCTTTCTTATCTAAGCCA: the binding signal (log2 normalized intensity) is -1.21.
Regarding TCTTCGCCTTGCTTATCTGGGAGGGGGAGG, the binding signal (log2 normalized intensity) was -1.21.
For the sequence CTCTAAGTAATCAATGGTTGCACTCTGGTG, the binding signal (log2 normalized intensity) is 1.98.
As for TTGGAGACAGTGAGACGCAAGCATATCTCT, the binding signal (log2 normalized intensity) was -0.964.
The result for AGGAAACTTAAGTCTCAAAGGTCAGATGAC reads 4.8; that for CATCTGGACTTTACACAGACCTTTACCCAC, 3.33; that for CAGAGACAATGTGAGCAGGTGTGTGGCATC, 0.817.
The same measure for GCCTCTTAACAGATGAGGACATTTCAGCAA: -1.08; for GTGAGGGGTTATGGAGAGTGGAAGACTGCA: -1.17; for AGTAGCATTATCTCCTTGCTGTGCACTTCT: 1.62.
For the sequence TTGCCTTGTCCTTAGACAGTAACCCTTGAG, the binding signal (log2 normalized intensity) was found to be 1.69.
With TTGCCCCTTCCAAAGTCCACCTCAACCTCC, the binding signal (log2 normalized intensity) was found to be 4.21.
The same measure for CACCCGGTTGGCGCCAATACCTGCCGCGCG: -1.12; for TATAGACTGTGATAATGCTCTTAATACTGT: 0.287; for AAAAGGTATTTTTTGAATGACAGTGTCAGG: 1.45.
On to AGTTACAGTCACTCCCTATCAACCAAATCA, for which the binding signal (log2 normalized intensity) is -1.09.
For the sequence AGAAAACTCAACTTCTAACTTCCGGCTGGC, the binding signal (log2 normalized intensity) is -1.11.
With CGCTGGGAAGACAGTCTTGGGCACAAAGTA, the binding signal (log2 normalized intensity) was -1.12.
With GACATCTGGGAACAAGTTCTGCAGACTCCC, the binding signal (log2 normalized intensity) is -1.08.
The same measure for CCCTTCTTCTCCTCCCAACAGGTATGCTCC: 1.89; for ACTCCACAAGACCACAAGGTGGCGATAACT: -1.06.
Take CAGTTTTACAAAGTGGTTGTAGCAGTTCAC: the binding signal (log2 normalized intensity) was found to be 1.72.
The result for TGTTTTGGAGTTAGCTGTCTTTCTGATAAG reads 1.51; that for CCTTGCTATGGAGTGGACTTTGGCTTATGC, 6.18; that for CAACCAAGTCCATCTGTATTGCCTCCTTTG, 1.08.
On to GAGCTCAGTCACAGCAGTGGACTTTGACCT, for which the binding signal (log2 normalized intensity) worked out at 11.2.
Turning to GCAACAGAGGAGCATGGACTTCTGAGCTTG, the binding signal (log2 normalized intensity) is -0.613.
For ATACAGAATCAATGCCTGATTCCAAAGTCC, the binding signal (log2 normalized intensity) came out at 5.95.
Turning to CAGGTTCAAATCTAAACCTAGCAGCCTGCC, the binding signal (log2 normalized intensity) was -1.15.
On to CAGCAGAGGGAGCCGCTGTGTGGGAAGAGG, for which the binding signal (log2 normalized intensity) is -0.914.
As for TGGTAAAGTCAATAATCTAGAAACCAGTGA, the binding signal (log2 normalized intensity) worked out at 0.24.
Turning to GTTTTCTGACGCAACAGAAAACTCAACTTC, the binding signal (log2 normalized intensity) was -1.12.
Regarding AGAGTCCAAGATACCACTGATAAGGTTCCA, the binding signal (log2 normalized intensity) was -0.744.
The result for GTTTCCTTTGAACTCTGCATCCAGGCATCC reads 0.259; that for CAAGAAAAGGTTCCTATGTAAACACAAGAT, -0.444.
For GCTAGACTTGGACCAGCTTTTGGAAGGACT, the binding signal (log2 normalized intensity) is -0.413.
As to CTTCGCTCTCTTCTGGTGATCAAACAAAAG, the binding signal (log2 normalized intensity) is -0.414.
As for AAACAGAGGACAGTTGTGTTTGTTGACCAC, the binding signal (log2 normalized intensity) came out at 1.99.
With GGGTGAAAGGGACTCATCTCCAAACGAGAC, the binding signal (log2 normalized intensity) is -0.986.
As for TTTGGTGTTACCTTTGGACTGTCCTTTGCT, the binding signal (log2 normalized intensity) is 4.07.
Take GCTTTGAGACACCTGGCCAAGTACAGCCTG: the binding signal (log2 normalized intensity) was -1.16.
Turning to GTCGGGAGGTAGGGGTGGCGGGTTGGAGGT, the binding signal (log2 normalized intensity) worked out at 0.142.
Take GCACAGCCAGAACTGAGCCCTGGTTTATCT: the binding signal (log2 normalized intensity) is -0.985.
As to CTCTACCCCATGATGATAGCAAACACGATT, the binding signal (log2 normalized intensity) is 1.44.
For ACTGTCTCGGGGATTAGCGATCATGGGTGA, the binding signal (log2 normalized intensity) was -1.18.
For the sequence CTGGTTGAAGGGGAGGTTATCTTGGGGCTG, the binding signal (log2 normalized intensity) is -0.241.
On to CCTGAGCCTGGACCTTGGAATGTCAAGATT, for which the binding signal (log2 normalized intensity) was 2.48.
Regarding GATTAGGAGAGGGAGAGTGAGTGAGTGTGT, the binding signal (log2 normalized intensity) was 1.95.
Consider CCTGACCTGCCCTTTGTCCCTCCTGCTAGT, for which the binding signal (log2 normalized intensity) is 3.3.
Regarding CATTTCCTTACAAACACAACATTGAAAGCG, the binding signal (log2 normalized intensity) was -0.774.
In the case of CCCTCTCTTTCTGGAACCTACAGCTGGGGC, the binding signal (log2 normalized intensity) is -0.00996.
With GGCTTCTGGACTATGCCTTGAACTTTAAGG, the binding signal (log2 normalized intensity) was found to be 2.21.
The result for ACCTTTTCCCTCCCTCCCAGTACAAAGTTC reads 5.13; that for TGACCGATAACCCTCCTGAACATAATTGCA, -0.656.
